“And” between values parts separate entries of the source, which are not always exact repeats. Equal entries are not always repeated. Where two headings read alike, the source gives them in different places.
B1: VHH-72-Fc (Fc fusion)
chain: QVQLQESGGGLVQAGGSLRLSCAASGRTFSEYAMGWFRQAPGKEREFVATISWSGGSTYYTDSVKGRFTISRDNAKNTVYLQMNSLKPDDTAVYYCAAAGLGTVVSEWDYDYDYWGQGTQVTVSSGS[human IgG1 Fc not spelt out]
B2: 4A8 MB (other)
chain 1: EIVMTQSPLSSPVTLGQPASISCRSSQSLVHSDGNTYLSWLQQRPGQPPRLLIYKISNRFSGVPDRFSGSGAGTDFTLKISRVEAEDVGVYYCTQATQFPYTFGQGTKVDIKRTVAAPSVFIFPPSDEQLKSGTASVVCLLNNFYPREAKVQWKVDNALQSGNSQESVTEQDSKDSTYSLSSTLTLSKADYEKHKVYACEVTHQGLSSPVTKSFNRGECGGGGSGGGGSGGGGSGGGGSGGGGSGGGGSGGGGSGGGGSGGGGSGGGGSGGGGSGGGGSGGGGSGGGGSEVQLVESGAEVKKPGASVKVSCKVSGYTLTELSMHWVRQAPGKGLEWMGGFDPEDGETMYAQKFQGRVTMTEDTSTDTAYMELSSLRSEDTAVYYCATSTAVAGTPDLFDYYYGMDVWGQGTTVTVSSASTKGPSVFPLAPSSKSTSGGTAALGCLVKDYFPEPVTVSWNSGALTSGVHTFPAVLQSSGLYSLSSVVTVPSSSLGTQTYICNVNHKPSNTKVDKKVEPKSCGGGGSGGGGSGGGGSGGGGSGGGGSG[about 200 residues not spelt out]
chain 2: [human IgG1 Fc not spelt out]GGGGSGGGGSGGGGSGGGGSGGGGSGGGGSGGGGSGGGGSGGGGSGGGGSGGGGSGGGGSGGGGSGGGGS[human IgG1 Fc not spelt out]GGGGSGGGGSGGGGSGGGGSGGGGSGGSSQIRQNYSTDVEAAVNSLVNLYLQASYTYLSLGFYFDRDDVALEGVSHFFRELAEEKREGYERLLKMQNQRGGRALFQDIKKPAEDEW
chain 3: EIVMTQSPLSSPVTLGQPASISCRSSQSLVHSDGNTYLSWLQQRPGQPPRLLIYKISNRFSGVPDRFSGSGAGTDFTLKISRVEAEDVGVYYCTQATQFPYTFGQGTKVDIKRTVAAPSVFIFPPSDEQLKSGTASVVCLLNNFYPREAKVQWKVDNALQSGNSQESVTEQDSKDSTYSLSSTLTLSKADYEKHKVYACEVTHQGLSSPVTKSFNRGECGGGGSGGGGSGGGGSGGGGSGGGGSGGGGSGGGGSGGGGSGGGGSGGGGSGGGGSGGGGSGGGGSGGGGSEVQLVESGAEVKKPGASVKVSCKVSGYTLTELSMHWVRQAPGKGLEWMGGFDPEDGETMYAQKFQGRVTMTEDTSTDTAYMELSSLRSEDTAVYYCATSTAVAGTPDLFDYYYGMDVWGQGTTVTVSSASTKGPSVFPLAPSSKSTSGGTAALGCLVKDYFPEPVTVSWNSGALTSGVHTFPAVLQSSGLYSLSSVVTVPSSSLGTQTYICNVNHKPSNTKVDKKVEPKSCGGGGSGGGGSGGGGSGGGGSGGGGSGGGKTPDAMKAAMALEKKLNQALLDLHALGSARTDPHLCDFLETHFLDEEVKLIKKMGDHLTNLHRLGGPEAGLGEYLFERLTLRHD
B3: MB 64 (other)
heavy: EVQLLESGGGLVQPGGSLRLSCAASGFPFSQHGMHWVRQAPGKGLEWVSAIDRSGSYIYYADSVKGRFTISRDNSKNTLYLQMNSLRAEDTAVYYCARDTYGGKVTYFDYWGQGTLVTVSSASTKGPSVFPLAPSSKSTSGGTAALGCLVKDYFPEPVTVSWNSGALTSGVHTFPAVLQSSGLYSLSSVVTVPSSSLGTQTYICNVNHKPSNTKVDKKVEPKSC
light: DIQMTQSPSSLSASVGDRVTITCRASQGISSHLAWYQQKPGKAPKLLIYDASNLETGVPSRFSGSGSGTDFTLTISSLQPEDFATYYCQQTYSTPWTFGQGTKVEIKRTVAAPSVFIFPPSDEQLKSGTASVVCLLNNFYPREAKVQWKVDNALQSGNSQESVTEQDSKDSTYSLSSTLTLSKADYEKHKVYACEVTHQGLSSPVTKSFNRGEC
B4: MB 52 (other)
heavy: QVQLVQSGAEVKKPGSSVKVSCKASGYTFTSYGISWVRQAPGQGLEWMGGIIPMFGTTNYAQKFQGRVTITADKSTSTAYMELSSLRSEDTAVYYCARDRGDTIDYWGQGTLVTVSSASTKGPSVFPLAPSSKSTSGGTAALGCLVKDYFPEPVTVSWNSGALTSGVHTFPAVLQSSGLYSLSSVVTVPSSSLGTQTYICNVNHKPSNTKVDKKVEPKSC
light: DIQMTQSPSSLSASVGDRVTITCRASQGISNNLNWYQQKPGKAPKLLIYAASSLESGVPSRFSGSGSGTDFTLTISSLQPEDFATYYCQQGNGFPLTFGPGTKVDIKRTVAAPSVFIFPPSDEQLKSGTASVVCLLNNFYPREAKVQWKVDNALQSGNSQESVTEQDSKDSTYSLSSTLTLSKADYEKHKVYACEVTHQGLSSPVTKSFNRGEC

Experiments:
Assay in all cases: cell-based or functional assay
[1] = molecular target: T1, SARS-CoV-2 Spike on HIV-based pseudotyped virus (Spike plasmid BEI NR52310) (SARS-CoV-2)
[2] = molecular target: T1, SARS-CoV-2 Spike on HIV-based …; remark: listed apart in the source
[3] = molecular target: T1, SARS-CoV-2 Spike on HIV-based …; remark: listed apart in the source
[4] = molecular target: Spike of authentic SARS-CoV-2/SB2-P4-PB virus (SARS-CoV-2)

Binder	Median IC50 (PsV neutralization) [1]	Median IC50 (PsV neutralization) [2]	IC50 SARS-CoV2 PsV (µg/mL), MB [3] [µg/mL]	IC50 SARS-CoV2/SB2-P4-PB (µg/mL), MB [4] [µg/mL]
B1	0.016 µM			
B2	0.052 µg/mL and 23 pM			
B3		14 µg/mL and 6.1 nM	14	
B4		0.0002 µg/mL and 0.087 pM	0.0002	0.27
